In paper PMC8572878 (Biotechnology Reports, 2021):

Target: wild type IL-17RA (UniProt Q96F46 33-317)
Test: SPR

B1: Interleukin-17A (IL-17A), commercial recombinant (ligand)
chain: not shown
- Kd: 1.4 nM
